Experimental data taken from the supplement of paper PMC8007513.
Structures can show the parent of a compound that is named as a salt. ± gives the standard error. In all, about 1,300 compounds went through this assay and about 130 (10%) showed an effect of 50% or more. The list shows a part of the results, in another mix than the full data.

Tested on: Trichoderma virens ATCC 9645
Experiment: growth yield (OD600) with compound + IPBC relative to untreated control; higher = less growth inhibition
Details: compound concentration: 100 uM, IPBC concentration: 200 ng/ml
Method in brief: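 Trichoderma virens ATCC 9645 spores from 7-day potato dextrose agar plates were suspended in potato dextrose broth at 15,000 spores ml^−1. Aliquots of 100 μl with library compounds at 100 μM final, with or without a co-applied biocide at 200 ng ml^−1, were grown in 96-well plates at 30 °C. OD600 was read at 40 h and 72 h on a BioTek EL800. Growth is expressed relative to the control without either agent, as means of duplicate screens.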

C=C1/C(=C\C=C2/CCC[C@]3(C)[C@@H]([C@H](C)CCCC(C)C)CC[C@@H]23)C[C@@H](O)C[C@@H]1O [Alfacalcidol] + CCCCNC(=O)OCC#CI [3-iodo-2-propynyl butylcarbamate (IPBC)]
growth yield (40 h): 99.8 ± 3.5% | growth yield (72 h): 104 ± 2.3%

Cc1ccc2c(c1)c1c3n2CCNC3CCC1 (stereo unspecified) [Pirlindole mesylate] + CCCCNC(=O)OCC#CI [3-iodo-2-propynyl butylcarbamate (IPBC)]
growth yield (40 h): 83.23 ± 0.32% | growth yield (72 h): 97.64 ± 0.94%

CCN(CC)CCNC(=O)c1cc(Cl)c(N)cc1OC [Metoclopramide monohydrochloride] + CCCCNC(=O)OCC#CI [3-iodo-2-propynyl butylcarbamate (IPBC)]
growth yield (40 h): 86.7 ± 4.1% | growth yield (72 h): 95.4 ± 3.4%

CCOc1ccc2ccccc2c1C(=O)N[C@@H]1C(=O)N2[C@@H]1SC(C)(C)[C@@H]2C(=O)O [Nafcillin sodium salt monohydrate] + CCCCNC(=O)OCC#CI [3-iodo-2-propynyl butylcarbamate (IPBC)]
growth yield (40 h): 101 ± 14% | growth yield (72 h): 98 ± 9.2%

Cn1cnc2c1c(=O)[nH]c(=O)n2C [Theobromine] + CCCCNC(=O)OCC#CI [3-iodo-2-propynyl butylcarbamate (IPBC)]
growth yield (40 h): 95.8 ± 8.7% | growth yield (72 h): 98.5 ± 5.3%

C[N+]1(C)CCOC(O)(c2ccc(-c3ccc(C4(O)C[N+](C)(C)CCO4)cc3)cc2)C1 (stereo unspecified) [Hemicholinium bromide] + CCCCNC(=O)OCC#CI [3-iodo-2-propynyl butylcarbamate (IPBC)]
growth yield (40 h): 19.1 ± 0.64%

Oc1c(Cl)cc(Cl)c(Cl)c1Cc1c(O)c(Cl)cc(Cl)c1Cl [Hexachlorophene] + CCCCNC(=O)OCC#CI [3-iodo-2-propynyl butylcarbamate (IPBC)]
growth yield (40 h): 19.4 ± 4.8% | growth yield (72 h): 80.2 ± 2.6%

Cc1c(N(C)C)c(=O)n(-c2ccccc2)n1C [Amidopyrine] + CCCCNC(=O)OCC#CI [3-iodo-2-propynyl butylcarbamate (IPBC)]
growth yield (40 h): 100 ± 4.3% | growth yield (72 h): 101 ± 4.8%

COc1ccc(/C=C/C(=O)Nc2ccccc2C(=O)O)cc1OC [Tranilast] + CCCCNC(=O)OCC#CI [3-iodo-2-propynyl butylcarbamate (IPBC)]
growth yield (40 h): 67.8 ± 1.4% | growth yield (72 h): 84.84 ± 0.1%

CCOC(=O)C1=C(COCCN)NC(C)=C(C(=O)OC)C1c1ccccc1Cl (stereo unspecified) [Amlodipine] + CCCCNC(=O)OCC#CI [3-iodo-2-propynyl butylcarbamate (IPBC)]
growth yield (40 h): 60.2 ± 3.3% | growth yield (72 h): 99.4 ± 1.9%

CN1[C@@H]2CC[C@H]1C[C@@H](OC(=O)c1c[nH]c3ccccc13)C2 [Tropisetron hydrochloride] + CCCCNC(=O)OCC#CI [3-iodo-2-propynyl butylcarbamate (IPBC)]
growth yield (40 h): 101.5 ± 0.16% | growth yield (72 h): 102%

Cc1cccc(C)c1OCC(C)N (stereo unspecified) [Mexiletine hydrochloride] + CCCCNC(=O)OCC#CI [3-iodo-2-propynyl butylcarbamate (IPBC)]
growth yield (40 h): 95.1 ± 3.6% | growth yield (72 h): 100.8 ± 0.32%

Nc1nc(CC(=O)Nc2ccc(CCNC[C@H](O)c3ccccc3)cc2)cs1 [Mirabegron] + CCCCNC(=O)OCC#CI [3-iodo-2-propynyl butylcarbamate (IPBC)]
growth yield (40 h): 111 ± 9.8% | growth yield (72 h): 110 ± 4.3%

NC[C@@H]1O[C@H](O[C@H]2[C@@H](O)[C@H](O[C@@H]3[C@@H](O)[C@H](N)C[C@H](N)[C@H]3O[C@H]3O[C@H](CO)[C@@H](O)[C@H](O)[C@H]3N)O[C@@H]2CO)[C@H](N)[C@@H](O)[C@@H]1O [Paromomycin sulfate] + CCCCNC(=O)OCC#CI [3-iodo-2-propynyl butylcarbamate (IPBC)]
growth yield (40 h): 84 ± 7.2% | growth yield (72 h): 86.5 ± 2.2%

COc1ccccc1OCC(O)CO (stereo unspecified) [Guaifenesin] + CCCCNC(=O)OCC#CI [3-iodo-2-propynyl butylcarbamate (IPBC)]
growth yield (40 h): 98.6 ± 11% | growth yield (72 h): 96 ± 6.2%

CC(=O)[C@H]1CC[C@H]2[C@@H]3C=CC4=CC(=O)CC[C@@]4(C)[C@@H]3CC[C@]12C [Dydrogesterone] + CCCCNC(=O)OCC#CI [3-iodo-2-propynyl butylcarbamate (IPBC)]
growth yield (40 h): 67.8 ± 2.7% | growth yield (72 h): 82.3 ± 2.2%

C[C@H]1O[C@@H](O[C@H]2[C@@H](O)C[C@H](O[C@H]3[C@@H](O)C[C@H](O[C@H]4CC[C@@]5(C)[C@H](CC[C@@H]6[C@@H]5C[C@@H](O)[C@]5(C)[C@@H](C7=CC(=O)OC7)CC[C@]65O)C4)O[C@@H]3C)O[C@@H]2C)C[C@H](O)[C@@H]1O [Digoxin] + CCCCNC(=O)OCC#CI [3-iodo-2-propynyl butylcarbamate (IPBC)]
growth yield (40 h): 81.3 ± 1.6% | growth yield (72 h): 89.6 ± 4.2%

COc1cc([S+](C)[O-])ccc1-c1nc2cccnc2[nH]1 (stereo unspecified) [Sulmazole] + CCCCNC(=O)OCC#CI [3-iodo-2-propynyl butylcarbamate (IPBC)]
growth yield (40 h): 110 ± 9.8% | growth yield (72 h): 107 ± 4.2%

CC[C@H](C)[C@H]1O[C@]2(C=C[C@@H]1C)C[C@@H]1C[C@@H](C/C=C(\C)[C@@H](O[C@H]3C[C@H](OC)[C@@H](O[C@H]4C[C@H](OC)[C@@H](O)[C@H](C)O4)[C@H](C)O3)[C@@H](C)/C=C/C=C3\CO[C@@H]4[C@H](O)C(C)=C[C@@H](C(=O)O1)[C@]34O)O2.CO[C@H]1C[C@H](O[C@H]2[C@H](C)O[C@@H](O[C@@H]3/C(C)=C/C[C@@H]4C[C@@H](C[C@]5(C=C[C@H](C)[C@@H](C(C)C)O5)O4)OC(=O)[C@@H]4C=C(C)[C@@H](O)[C@H]5OC/C(=C\C=C\[C@@H]3C)[C@]54O)C[C@@H]2OC)O[C@@H](C)[C@@H]1O [Avermectin B1] + CCCCNC(=O)OCC#CI [3-iodo-2-propynyl butylcarbamate (IPBC)]
growth yield (40 h): 115.5 ± 0.79% | growth yield (72 h): 110 ± 2%

O=C(OCC(O)CO)c1ccccc1Nc1ccnc2cc(Cl)ccc12 (stereo unspecified) [Glafenine hydrochloride] + CCCCNC(=O)OCC#CI [3-iodo-2-propynyl butylcarbamate (IPBC)]
growth yield (40 h): 84.3 ± 2.4% | growth yield (72 h): 97.3 ± 1.3%

CC(C(=O)O)c1ccc(-c2ccccc2)c(F)c1 (stereo unspecified) [Flurbiprofen] + CCCCNC(=O)OCC#CI [3-iodo-2-propynyl butylcarbamate (IPBC)]
growth yield (40 h): 43.4 ± 3.3% | growth yield (72 h): 76.9 ± 2%
